According to publication PMC2894074:
No constants are given. Whether binding was seen depends on the method and setting. In cells and extracts the contact can be indirect. Some results given as binding are weak or reduced against the parent protein; the word gives no strength. For some of these results: Where a sequence is shown, tags or fusion partners need not be part of it.

Chains of the proteins cited; added tags and fusions are not shown.
UniProt Q99873: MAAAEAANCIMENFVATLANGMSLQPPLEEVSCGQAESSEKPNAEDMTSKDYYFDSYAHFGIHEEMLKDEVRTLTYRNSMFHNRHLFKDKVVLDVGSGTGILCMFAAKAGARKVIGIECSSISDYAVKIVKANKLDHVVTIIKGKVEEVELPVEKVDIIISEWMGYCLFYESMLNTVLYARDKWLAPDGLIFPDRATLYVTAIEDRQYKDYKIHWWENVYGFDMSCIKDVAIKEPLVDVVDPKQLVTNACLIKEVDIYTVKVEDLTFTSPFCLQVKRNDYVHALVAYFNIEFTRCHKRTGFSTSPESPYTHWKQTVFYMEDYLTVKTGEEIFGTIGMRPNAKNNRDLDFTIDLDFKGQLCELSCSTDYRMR

Tests used:
[1] = molecular target: BRCA1 (human (endogenous in HeLa)) (UniProt P38398); assay: co-IP; 2 mg HeLa whole cell protein extract immunoprecipitated with anti-BRCA1 or IgG; washed twice with TNE150 + 0.1% NP-40 and once with TNE50 + 0.1% NP-40; blot with anti-PRMT1
[2] = molecular target: GST-BRCA1 452–1079 (human) (UniProt P38398); assay: pull-down; 500 ng GST-BRCA1 constructs on beads rotated with 2 mg HeLa whole cell protein extract in lysis buffer, 4°C overnight; washed twice with TNE150 + 0.1% NP-40 and once with TNE50 + 0.1% NP-40; blot with anti-PRMT1; only the target purified
[3] = molecular target: GST-BRCA1 504–802 (human) (UniProt P38398); assay: as above
[4] = molecular target: GST-BRCA1 1021–1552 (human) (UniProt P38398); assay: as above
GST-BRCA1 1–500 (human) = GST-BRCA1 1–500 (human) (UniProt P38398); assay: as above
[5] = molecular target: T1, GST-BRCA1 1501–1861 (human) (UniProt P38398); assay: as above
T1 sequence: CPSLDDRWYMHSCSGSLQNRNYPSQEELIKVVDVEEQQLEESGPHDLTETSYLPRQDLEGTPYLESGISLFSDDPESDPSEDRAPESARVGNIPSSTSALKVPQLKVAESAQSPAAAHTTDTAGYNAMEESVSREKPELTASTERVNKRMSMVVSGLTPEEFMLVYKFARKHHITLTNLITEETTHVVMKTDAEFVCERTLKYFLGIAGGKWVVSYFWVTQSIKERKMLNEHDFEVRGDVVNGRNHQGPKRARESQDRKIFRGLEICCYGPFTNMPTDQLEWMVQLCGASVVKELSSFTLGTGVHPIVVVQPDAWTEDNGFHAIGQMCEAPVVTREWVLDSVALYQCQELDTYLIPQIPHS

[6] = molecular target: T2, GST-BRCA1 697–1276 (human) (UniProt P38398); assay: as above
T2 sequence: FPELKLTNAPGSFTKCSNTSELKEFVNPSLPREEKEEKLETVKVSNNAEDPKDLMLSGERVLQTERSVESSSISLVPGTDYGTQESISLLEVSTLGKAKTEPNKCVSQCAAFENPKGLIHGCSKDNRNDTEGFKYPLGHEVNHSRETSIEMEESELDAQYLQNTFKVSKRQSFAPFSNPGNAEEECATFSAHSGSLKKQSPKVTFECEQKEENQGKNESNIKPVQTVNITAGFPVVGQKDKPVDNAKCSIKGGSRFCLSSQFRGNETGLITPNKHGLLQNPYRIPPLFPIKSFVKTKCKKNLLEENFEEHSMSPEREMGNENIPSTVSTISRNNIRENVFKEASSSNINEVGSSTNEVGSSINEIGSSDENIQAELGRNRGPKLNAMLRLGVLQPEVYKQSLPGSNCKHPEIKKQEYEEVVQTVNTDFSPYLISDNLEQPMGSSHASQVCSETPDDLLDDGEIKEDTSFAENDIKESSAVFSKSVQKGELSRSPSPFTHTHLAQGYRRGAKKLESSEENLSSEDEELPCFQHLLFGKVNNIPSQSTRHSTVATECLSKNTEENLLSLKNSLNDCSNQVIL

- binding [1]: binds
- binding [2]: no binding
- binding [3]: binds
- binding [4]: no binding
- binding (GST-BRCA1 1–500 (human)): no binding
- binding [5]: no binding
- binding [6]: no binding
Substance: PRMT1 (from UniProt Q99873 1-371) (enzyme)
